{"source": "the supplement of paper PMC8728848", "experiment_in_all_cases": "glycan array binding signal (z-score within array); higher = stronger binding", "details_in_all_cases": "glycan notation: IUPAC condensed, linker removed", "key": {"[1]": {"molecular_target": "Neu5Ac(a2-6)Gal(b1-4)GlcNAc(b1-2)Man(a1-3)[Neu5Ac(a2-3)Gal(b1-4)GlcNAc(b1-2)Man(a1-6)]Man(b1-4)GlcNAc(b1-4)GlcNAc", "outline": "(§1)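 The binding signal is a Z-score computed within each array and averaged over linkers. Arrays of the same protein sequence at different concentrations or buffers were also averaged together. Data originate from 3228 arrays in the Consortium for Functional Glycomics database, kept only where the protein sequence was available.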"}, "[2]": {"molecular_target": "Neu5Ac(a2-6)Gal(b1-4)GlcNAc(b1-2)Man(a1-3)[Neu5Ac(a2-6)Gal(b1-4)GlcNAc(b1-2)Man(a1-6)]Man(b1-4)GlcNAc(b1-4)GlcNAc", "outline": "as §1"}, "[3]": {"molecular_target": "Neu5Ac(a2-6)Gal(b1-4)GlcNAc(b1-2)Man(a1-3)[Neu5Ac(a2-6)Gal(b1-4)GlcNAc(b1-2)Man(a1-6)]Man(b1-4)GlcNAc(b1-4)[Fuc(a1-6)]GlcNAc", "outline": "as §1"}, "[4]": {"molecular_target": "Neu5Ac(a2-6)Gal(b1-4)GlcNAc(b1-2)Man(a1-6)Man(b1-4)GlcNAc(b1-4)GlcNAc", "outline": "as §1"}, "[5]": {"molecular_target": "Neu5Ac(a2-6)Gal(b1-4)GlcNAc(b1-2)Man(a1-6)[Gal(b1-4)GlcNAc(b1-2)Man(a1-3)]Man(b1-4)GlcNAc(b1-4)GlcNAc", "outline": "as §1"}, "[6]": {"molecular_target": "Neu5Ac(a2-6)Gal(b1-4)GlcNAc(b1-2)Man(a1-6)[GlcNAc(b1-2)Man(a1-3)]Man(b1-4)GlcNAc(b1-4)GlcNAc", "outline": "as §1"}, "[7]": {"molecular_target": "Neu5Ac(a2-6)Gal(b1-4)GlcNAc(b1-2)Man(a1-6)[Man(a1-3)]Man(b1-4)GlcNAc(b1-4)GlcNAc", "outline": "as §1"}, "[8]": {"molecular_target": "Neu5Ac(a2-6)Gal(b1-4)GlcNAc(b1-2)[Neu5Ac(a2-6)Gal(b1-4)GlcNAc(b1-4)]Man(a1-3)[GlcNAc(b1-4)][Neu5Ac(a2-6)Gal(b1-4)GlcNAc(b1-2)[Neu5Ac(a2-6)Gal(b1-4)GlcNAc(b1-6)]Man(a1-6)]Man(b1-4)GlcNAc(b1-4)GlcNAc", "outline": "as §1"}, "[9]": {"molecular_target": "Neu5Ac(a2-6)Gal(b1-4)GlcNAc(b1-2)[Neu5Ac(a2-6)Gal(b1-4)GlcNAc(b1-4)]Man(a1-3)[GlcNAc(b1-4)][Neu5Ac(a2-6)Gal(b1-4)GlcNAc(b1-4)Man(a1-6)]Man(b1-4)GlcNAc(b1-4)GlcNAc", "outline": "as §1"}, "[10]": {"molecular_target": "Neu5Ac(a2-6)Gal(b1-4)GlcNAc(b1-2)[Neu5Ac(a2-6)Gal(b1-4)GlcNAc(b1-6)]Man(a1-6)[Neu5Ac(a2-6)Gal(b1-4)GlcNAc(b1-2)Man(a1-3)][GlcNAc(b1-4)]Man(b1-4)GlcNAc(b1-4)GlcNAc", "outline": "as §1"}, "[11]": {"molecular_target": "Neu5Ac(a2-6)Gal(b1-4)GlcNAc(b1-3)Gal(b1-3)GlcNAc", "outline": "as §1"}, "[12]": {"molecular_target": "Neu5Ac(a2-6)Gal(b1-4)GlcNAc(b1-3)Gal(b1-4)GlcNAc", "outline": "as §1"}, "[13]": {"molecular_target": "Neu5Ac(a2-6)Gal(b1-4)GlcNAc(b1-3)Gal(b1-4)GlcNAc(b1-2)Man(a1-3)[Neu5Ac(a2-6)Gal(b1-4)GlcNAc(b1-3)Gal(b1-4)GlcNAc(b1-2)Man(a1-6)]GalNAc", "outline": "as §1"}, "[14]": {"molecular_target": "Neu5Ac(a2-6)Gal(b1-4)GlcNAc(b1-3)Gal(b1-4)GlcNAc(b1-3)Gal(b1-4)GlcNAc", "outline": "as §1"}, "[15]": {"molecular_target": "Neu5Ac(a2-6)Gal(b1-4)GlcNAc(b1-3)Gal(b1-4)GlcNAc(b1-3)Gal(b1-4)GlcNAc(b1-2)Man(a1-3)[Neu5Ac(a2-6)Gal(b1-4)GlcNAc(b1-3)Gal(b1-4)GlcNAc(b1-3)Gal(b1-4)GlcNAc(b1-2)Man(a1-6)]GalNAc", "outline": "as §1"}, "[16]": {"molecular_target": "Neu5Ac(a2-6)Gal(b1-4)GlcNAc(b1-3)Gal(b1-4)GlcNAc(b1-3)GalNAc", "outline": "as §1"}, "[17]": {"molecular_target": "Neu5Ac(a2-6)Gal(b1-4)GlcNAc(b1-3)Gal(b1-4)GlcNAc(b1-3)[Neu5Ac(a2-6)Gal(b1-4)GlcNAc(b1-3)Gal(b1-4)GlcNAc(b1-6)]GalNAc", "outline": "as §1"}, "[18]": {"molecular_target": "Neu5Ac(a2-6)Gal(b1-4)GlcNAc(b1-3)Gal(b1-4)GlcNAc(b1-6)[Gal(b1-3)]GalNAc", "outline": "as §1"}, "[19]": {"molecular_target": "Neu5Ac(a2-6)Gal(b1-4)GlcNAc(b1-3)Gal(b1-4)[Fuc(a1-3)]GlcNAc(b1-3)Gal(b1-4)[Fuc(a1-3)]GlcNAc", "outline": "as §1"}, "[20]": {"molecular_target": "Neu5Ac(a2-6)Gal(b1-4)GlcNAc(b1-3)GalNAc", "outline": "as §1"}, "[21]": {"molecular_target": "Neu5Ac(a2-6)Gal(b1-4)GlcNAc(b1-3)[Neu5Ac(a2-6)Gal(b1-4)GlcNAc(b1-6)]GalNAc", "outline": "as §1"}, "[22]": {"molecular_target": "Neu5Ac(a2-6)Gal(b1-4)GlcNAc(b1-6)GalNAc", "outline": "as §1"}, "[23]": {"molecular_target": "Neu5Ac(a2-6)Gal(b1-4)GlcNAc(b1-6)[Gal(b1-3)GlcNAc(b1-3)]Gal(b1-4)Glc", "outline": "as §1"}, "[24]": {"molecular_target": "Neu5Ac(a2-6)Gal(b1-4)GlcNAc(b1-6)[Gal(b1-3)]GalNAc", "outline": "as §1"}, "[25]": {"molecular_target": "Neu5Ac(a2-6)Gal(b1-4)GlcNAc6S", "outline": "as §1"}, "Neu5Ac(a2-6)GalNAc": {"molecular_target": "Neu5Ac(a2-6)GalNAc", "outline": "as §1"}, "[26]": {"molecular_target": "Neu5Ac(a2-6)GalNAc(b1-4)GlcNAc", "outline": "as §1"}, "[27]": {"molecular_target": "Neu5Ac(a2-6)GalNAc(b1-4)GlcNAc6S", "outline": "as §1"}, "[28]": {"molecular_target": "Neu5Ac(a2-6)GlcNAc(b1-4)GlcNAc", "outline": "as §1"}, "[29]": {"molecular_target": "Neu5Ac(a2-6)GlcNAc(b1-4)GlcNAc(b1-4)GlcNAc", "outline": "as §1"}}, "note": "Some of the results follow.", "data": [{"binder": "RBMC2 (Vibrio cholerae) (protein) KISVRSGFAIDAIGASASTLVGGTGGNLNAAVNVKDIKAIDLTWGKYYWGGYHLLALDFRMSNGSVISMGSKNYAYSKQTERFTVPAGSRIKGIKAWTAGWLLDGVQFELA", "values": [{"measurement": "glycan array binding signal (z-score)", "setting": "[1]", "result": 3.39}, {"measurement": "glycan array binding signal (z-score)", "setting": "[2]", "result": 2.41}, {"measurement": "glycan array binding signal (z-score)", "setting": "[3]", "result": 3.57}, {"measurement": "glycan array binding signal (z-score)", "setting": "[4]", "result": -0.226}, {"measurement": "glycan array binding signal (z-score)", "setting": "[5]", "result": 3.52}, {"measurement": "glycan array binding signal (z-score)", "setting": "[6]", "result": 2.95}, {"measurement": "glycan array binding signal (z-score)", "setting": "[7]", "result": 0.459}, {"measurement": "glycan array binding signal (z-score)", "setting": "[8]", "result": -0.425}, {"measurement": "glycan array binding signal (z-score)", "setting": "[9]", "result": -0.278}, {"measurement": "glycan array binding signal (z-score)", "setting": "[10]", "result": -0.358}, {"measurement": "glycan array binding signal (z-score)", "setting": "[11]", "result": -0.172}, {"measurement": "glycan array binding signal (z-score)", "setting": "[12]", "result": -0.407}, {"measurement": "glycan array binding signal (z-score)", "setting": "[13]", "result": 0.542}, {"measurement": "glycan array binding signal (z-score)", "setting": "[14]", "result": -0.262}, {"measurement": "glycan array binding signal (z-score)", "setting": "[15]", "result": 0.899}, {"measurement": "glycan array binding signal (z-score)", "setting": "[16]", "result": -0.276}, {"measurement": "glycan array binding signal (z-score)", "setting": "[17]", "result": -0.284}, {"measurement": "glycan array binding signal (z-score)", "setting": "[18]", "result": -0.204}, {"measurement": "glycan array binding signal (z-score)", "setting": "[19]", "result": -0.338}, {"measurement": "glycan array binding signal (z-score)", "setting": "[20]", "result": -0.407}, {"measurement": "glycan array binding signal (z-score)", "setting": "[21]", "result": -0.242}, {"measurement": "glycan array binding signal (z-score)", "setting": "[22]", "result": -0.155}, {"measurement": "glycan array binding signal (z-score)", "setting": "[23]", "result": -0.398}, {"measurement": "glycan array binding signal (z-score)", "setting": "[24]", "result": -0.421}, {"measurement": "glycan array binding signal (z-score)", "setting": "[25]", "result": -0.412}, {"measurement": "glycan array binding signal (z-score)", "setting": "Neu5Ac(a2-6)GalNAc", "result": -0.408}, {"measurement": "glycan array binding signal (z-score)", "setting": "[26]", "result": -0.287}, {"measurement": "glycan array binding signal (z-score)", "setting": "[27]", "result": -0.263}, {"measurement": "glycan array binding signal (z-score)", "setting": "[28]", "result": -0.343}, {"measurement": "glycan array binding signal (z-score)", "setting": "[29]", "result": -0.254}]}]}
